# In the supplement of paper PMC8728848:
# The other results are listed elsewhere or left out.
# B1: SSA (Sclerotinia sclerotiorum), A7XUK7 (protein)
# chain: MGFKGVGTYEIVPYQAPSLNLNAWEGKLEPGAVVRTYTRGDKPSDNAKWQVALVAGSGDSAEYLIINVHSGYFLTATKENHIVSTPQISPTDPSARWTIKPATTHQYEVFTINNKVSELGQLTVKDYSTHSGADVLSASAKTADNQKWYFDAK
# Legend:
# Test in all cases: glycan array binding signal (z-score within array); higher = stronger binding
# Conditions in all cases: glycan notation: IUPAC condensed, linker removed
# Kdn(a2-3)Gal(b1-4)GlcNAc = molecular target: Kdn(a2-3)Gal(b1-4)GlcNAc
# How it was run: (§1)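 From the Consortium for Functional Glycomics database, 3228 arrays were curated, keeping only those whose protein sequence was available. Binding is given as a within-array Z-score averaged across arrays sharing a protein sequence and across linkers. Negative Z-scores can be read as non-binding.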
# [1] = molecular target: Kdn(a2-3)Gal(b1-4)[Fuc(a1-3)]GlcNAc
# How it was run: as §1
# Kdn(a2-6)Gal(b1-4)GlcNAc = molecular target: Kdn(a2-6)Gal(b1-4)GlcNAc
# How it was run: as §1
# [2] = molecular target: Man(a1-2)Man(a1-2)Man(a1-3)Man
# How it was run: as §1
# [3] = molecular target: Man(a1-2)Man(a1-2)Man(a1-6)[Man(a1-3)]Man
# How it was run: as §1
# Man(a1-2)Man(a1-3)Man = molecular target: Man(a1-2)Man(a1-3)Man
# How it was run: as §1
# [4] = molecular target: Man(a1-2)Man(a1-3)[Man(a1-2)Man(a1-6)]Man
# How it was run: as §1
# [5] = molecular target: Man(a1-2)Man(a1-3)[Man(a1-2)Man(a1-6)]Man(a1-6)[Man(a1-2)Man(a1-2)Man(a1-3)]Man
# How it was run: as §1
# [6] = molecular target: Man(a1-2)Man(a1-3)[Man(a1-2)Man(a1-6)]Man(a1-6)[Man(a1-2)Man(a1-2)Man(a1-3)]Man(b1-4)GlcNAc(b1-4)GlcNAc
# How it was run: as §1
# [7] = molecular target: Man(a1-2)Man(a1-3)[Man(a1-6)]Man(a1-6)[Man(a1-2)Man(a1-3)]Man(b1-4)GlcNAc(b1-4)GlcNAc
# How it was run: as §1
# [8] = molecular target: Man(a1-2)Man(a1-6)[Man(a1-3)]Man(a1-6)[Man(a1-2)Man(a1-2)Man(a1-3)]Man
# How it was run: as §1
# [9] = molecular target: Man(a1-2)Man(a1-6)[Man(a1-3)]Man(a1-6)[Man(a1-2)Man(a1-2)Man(a1-3)]Man(b1-4)GlcNAc(b1-4)GlcNAc
# How it was run: as §1
# Man(a1-3)[Man(a1-6)]Man = molecular target: Man(a1-3)[Man(a1-6)]Man
# How it was run: as §1
# [10] = molecular target: Man(a1-3)[Man(a1-6)]Man(a1-6)[Man(a1-2)Man(a1-3)]Man(b1-4)GlcNAc(b1-4)GlcNAc
# How it was run: as §1
# [11] = molecular target: Man(a1-3)[Man(a1-6)]Man(a1-6)[Man(a1-3)]Man
# How it was run: as §1
# [12] = molecular target: Man(a1-3)[Man(a1-6)]Man(a1-6)[Man(a1-3)]Man(b1-4)GlcNAc(b1-4)GlcNAc
# How it was run: as §1
# [13] = molecular target: Man(a1-3)[Man(a1-6)]Man(b1-4)GlcNAc(b1-4)GlcNAc
# How it was run: as §1
# Man(a1-6)Man = molecular target: Man(a1-6)Man
# How it was run: as §1
# Man(b1-4)GlcNAc = molecular target: Man(b1-4)GlcNAc
# How it was run: as §1
# Neu5Ac(a2-3)Gal = molecular target: Neu5Ac(a2-3)Gal
# How it was run: as §1
# [14] = molecular target: Neu5Ac(a2-3)Gal(b1-3)GalNAc
# How it was run: as §1
# [15] = molecular target: Neu5Ac(a2-3)Gal(b1-3)GalNAc(b1-3)Gal(a1-4)Gal(b1-4)Glc
# How it was run: as §1
# [16] = molecular target: Neu5Ac(a2-3)Gal(b1-3)GalNAc(b1-3)Gal(b1-4)GlcNAc
# How it was run: as §1
# [17] = molecular target: Neu5Ac(a2-3)Gal(b1-3)GalNAc(b1-4)[Neu5Ac(a2-3)]Gal(b1-4)Glc
# How it was run: as §1
# [18] = molecular target: Neu5Ac(a2-3)Gal(b1-3)GalNAc6S
# How it was run: as §1
# [19] = molecular target: Neu5Ac(a2-3)Gal(b1-3)GlcNAc
# How it was run: as §1
# [20] = molecular target: Neu5Ac(a2-3)Gal(b1-3)GlcNAc(b1-3)Gal(b1-3)GlcNAc
# How it was run: as §1
# [21] = molecular target: Neu5Ac(a2-3)Gal(b1-3)GlcNAc6S
# How it was run: as §1
# [22] = molecular target: Neu5Ac(a2-3)Gal(b1-3)[Fuc(a1-4)]GlcNAc
# How it was run: as §1
# [23] = molecular target: Neu5Ac(a2-3)Gal(b1-3)[Fuc(a1-4)]GlcNAc(b1-3)Gal(b1-3)[Fuc(a1-4)]GlcNAc
# How it was run: as §1
# [24] = molecular target: Neu5Ac(a2-3)Gal(b1-3)[Fuc(a1-4)]GlcNAc(b1-3)Gal(b1-4)[Fuc(a1-3)]GlcNAc
# How it was run: as §1
# [25] = molecular target: Neu5Ac(a2-3)Gal(b1-3)[Neu5Ac(a2-3)Gal(b1-4)]GlcNAc
# How it was run: as §1
# [26] = molecular target: Neu5Ac(a2-3)Gal(b1-3)[Neu5Ac(a2-6)]GalNAc
# How it was run: as §1
# Neu5Ac(a2-3)Gal(b1-4)Glc = molecular target: Neu5Ac(a2-3)Gal(b1-4)Glc
# How it was run: as §1
# [27] = molecular target: Neu5Ac(a2-3)Gal(b1-4)GlcNAc
# How it was run: as §1
# [28] = molecular target: Neu5Ac(a2-3)Gal(b1-4)GlcNAc(b1-2)Man(a1-3)[GlcNAc(b1-2)Man(b1-4)GlcNAc(b1-2)Man(a1-6)]Man(b1-4)GlcNAc(b1-4)GlcNAc
# How it was run: as §1
# [29] = molecular target: Neu5Ac(a2-3)Gal(b1-4)GlcNAc(b1-2)Man(a1-3)[Neu5Ac(a2-3)Gal(b1-4)GlcNAc(b1-2)Man(a1-6)]Man(b1-4)GlcNAc(b1-4)GlcNAc
# How it was run: as §1
# [30] = molecular target: Neu5Ac(a2-3)Gal(b1-4)GlcNAc(b1-2)Man(a1-3)[Neu5Ac(a2-6)Gal(b1-4)GlcNAc(b1-2)Man(a1-6)]Man(b1-4)GlcNAc(b1-4)GlcNAc
# How it was run: as §1
# [31] = molecular target: Neu5Ac(a2-3)Gal(b1-4)GlcNAc(b1-3)Gal(b1-3)GlcNAc
# How it was run: as §1
# [32] = molecular target: Neu5Ac(a2-3)Gal(b1-4)GlcNAc(b1-3)Gal(b1-4)GlcNAc
# How it was run: as §1
# [33] = molecular target: Neu5Ac(a2-3)Gal(b1-4)GlcNAc(b1-3)Gal(b1-4)GlcNAc(b1-3)Gal(b1-4)GlcNAc
# How it was run: as §1
# [34] = molecular target: Neu5Ac(a2-3)Gal(b1-4)GlcNAc(b1-3)Gal(b1-4)[Fuc(a1-3)]GlcNAc
# How it was run: as §1
# [35] = molecular target: Neu5Ac(a2-3)Gal(b1-4)GlcNAc(b1-3)GalNAc
# How it was run: as §1
# [36] = molecular target: Neu5Ac(a2-3)Gal(b1-4)GlcNAc(b1-6)[Gal(b1-3)]GalNAc
# How it was run: as §1
# [37] = molecular target: Neu5Ac(a2-3)Gal(b1-4)GlcNAc(b1-6)[Neu5Ac(a2-3)Gal(b1-3)]GalNAc
# How it was run: as §1
binder,measurement,setting,value
B1,glycan array binding signal (z-score),Kdn(a2-3)Gal(b1-4)GlcNAc,-0.211
same,glycan array binding signal (z-score),[1],-0.128
same,glycan array binding signal (z-score),Kdn(a2-6)Gal(b1-4)GlcNAc,-0.213
same,glycan array binding signal (z-score),[2],-0.25
same,glycan array binding signal (z-score),[3],-0.351
same,glycan array binding signal (z-score),Man(a1-2)Man(a1-3)Man,-0.3
same,glycan array binding signal (z-score),[4],-0.181
same,glycan array binding signal (z-score),[5],-0.381
same,glycan array binding signal (z-score),[6],-0.34
same,glycan array binding signal (z-score),[7],-0.288
same,glycan array binding signal (z-score),[8],-0.407
same,glycan array binding signal (z-score),[9],-0.382
same,glycan array binding signal (z-score),Man(a1-3)[Man(a1-6)]Man,-0.372
same,glycan array binding signal (z-score),[10],-0.178
same,glycan array binding signal (z-score),[11],-0.439
same,glycan array binding signal (z-score),[12],-0.201
same,glycan array binding signal (z-score),[13],0.113
same,glycan array binding signal (z-score),Man(a1-6)Man,-0.331
same,glycan array binding signal (z-score),Man(b1-4)GlcNAc,-0.358
same,glycan array binding signal (z-score),Neu5Ac(a2-3)Gal,-0.257
same,glycan array binding signal (z-score),[14],-0.226
same,glycan array binding signal (z-score),[15],-0.295
same,glycan array binding signal (z-score),[16],-0.267
same,glycan array binding signal (z-score),[17],-0.159
same,glycan array binding signal (z-score),[18],-0.365
same,glycan array binding signal (z-score),[19],-0.286
same,glycan array binding signal (z-score),[20],-0.389
same,glycan array binding signal (z-score),[21],-0.258
same,glycan array binding signal (z-score),[22],-0.248
same,glycan array binding signal (z-score),[23],-0.175
same,glycan array binding signal (z-score),[24],-0.301
same,glycan array binding signal (z-score),[25],-0.184
same,glycan array binding signal (z-score),[26],0.198
same,glycan array binding signal (z-score),Neu5Ac(a2-3)Gal(b1-4)Glc,-0.186
same,glycan array binding signal (z-score),[27],-0.233
same,glycan array binding signal (z-score),[28],-0.291
same,glycan array binding signal (z-score),[29],-0.446
same,glycan array binding signal (z-score),[30],-0.264
same,glycan array binding signal (z-score),[31],-0.297
same,glycan array binding signal (z-score),[32],-0.244
same,glycan array binding signal (z-score),[33],-0.152
same,glycan array binding signal (z-score),[34],-0.158
same,glycan array binding signal (z-score),[35],-0.425
same,glycan array binding signal (z-score),[36],-0.127
same,glycan array binding signal (z-score),[37],-0.196
